The campaign covered roughly 420,000 compounds. About 50,000 (12%) were called active. Inconclusive results, whose numbers are uncertain, are shown with a selection of clear calls. The call rests on the fitted dose curve; in most records, active means well fitted inhibition curve with a large enough effect; inconclusive means small, poorly fitted or top-dose-only effect; inactive means flat fitted curve, though single readings scatter. Potencies of inconclusive entries are left out as doubtful fits.
Assay: qHTS for Inhibitors of human tyrosyl-DNA phosphodiesterase 1 (TDP1): qHTS in cells in presence of CPT; further: nearly all actives have a fitted effect of over 55% in size
Conditions: chicken DT40 Tdp1-/-;hTDP1 cells + 20 nM CPT, ATP luminescence, 48 h; activity change, negative = growth inhibition: at 46.2 µM (top of the series)
Summary of the method: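 Cell growth measured by CellTiter-Glo luminescence after a minimum 48 h, 37 C compound exposure with 20 nM CPT in Tdp1-knockout DT40 cells stably expressing hTDP1, seeded 400/well; qHTS titration format.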
On the % scale 0 is the no-effect control and ±100 the full control effect; potency means the concentration at half of the fitted maximal effect; tags describe the fitted curve by direction and shape.

Structure (SMILES)	Potency	activity change, negative = growth inhibition
COC(=O)c1ccc(NC(=O)N2CCc3c([nH]c4ccccc34)C2c2ccc(C)cc2)cc1 (stereo not drawn)	inconclusive [inhibitor, single point]	–
COc1ccc(-c2coc3cc(O)ccc3c2=O)c(O)c1O	inconclusive [inhibitor, single point]	–
CSc1nc2nc(Cl)c(Cl)nc2[nH]1	inconclusive [inhibitor, single point]	–
CCc1ccc(S(=O)(=O)N/N=C\c2ccc3c(c2)OCO3)cc1	–	inactive: -3.83%
CCC(c1nnnn1CCc1ccccc1)N1CCN(c2ccc(OC)cc2)CC1 (stereo not drawn)	inconclusive [inhibitor, single point]	–
COC(=O)[C@@]12C[C@@H](CC(=O)N3CCCC3)C(=O)N(CCc3ccc(OC)c(OC)c3)C1=CCC(C)(C)C2	inconclusive [inhibitor, single point]	–
O=C(O)c1ccc(-n2nc(-c3ccccc3O)nc2-c2ccccc2O)cc1	inconclusive [inhibitor, single point]	–
O=C(NCc1ccccc1Cl)C(=O)NCC(c1ccco1)S(=O)(=O)c1cccs1 (stereo not drawn)	inconclusive [inhibitor, partial curve]	–
N#Cc1cccc(-c2nc(Nc3ccncc3)c3ccccc3n2)c1	active: 2.59 µM	–
COC(=O)CC/C(O)=C1\C(=O)CC(C)(C)CC1=NCCc1nc2ccccc2[nH]1	inconclusive [inhibitor, partial curve]	–
COc1cc(OC)c(N(C)S(=O)(=O)c2cccc(C(=O)OCC(=O)NCc3ccco3)c2)cc1Cl	inconclusive [inhibitor, single point]	–
CC(=O)Nc1ccc(Nc2c3c4c(cccc4n(C)c2=O)C(=O)c2ccccc2-3)cc1	inconclusive [inhibitor, single point]	–
COc1ccc(/C=C2\SC(=S)N(CCC(=O)Nc3cccc(O)c3)C2=O)cc1OC	–	inactive: -7.13%
CC(C)(C)NC(=O)Cn1c(SCC(=O)N2CCCCCC2)nc2ccccc21	–	inactive: -17.8%
Cc1c2cnn(CC(=O)NCCc3ccccc3)c(=O)c2c(C)n1Cc1ccccc1Cl	inconclusive [inhibitor, single point]	–
CCc1nnc(NC(=O)CSc2nnc(-c3cccnc3)n2CC)s1	–	inactive: 1.14%
COc1ccc(Cn2c(=O)c3oc4ccccc4c3n(CC(=O)Nc3cc(C)cc(C)c3)c2=O)cc1	–	inactive: -7.12%
CC1CCCN(C(=O)C(Cc2ccccc2)n2cccc2)C1 (stereo not drawn)	active: 14.6 µM	–
O=C(CSc1cccc[n+]1[O-])c1ccc(Cl)s1	active: 0.731 µM	–
CCc1ccc(NC(=O)CSc2nc(=O)n(Cc3cccnc3)c3c2CCC3)cc1	inconclusive [inhibitor, partial curve, poor fit]	–
CC(=O)Nc1ccc(NC(=O)c2ccc(S(=O)(=O)N3CCCCCC3)cc2)cc1	–	inactive: -15.9%
COc1cc(N)c(Cl)cc1C(=O)OCC(=O)NCC1CCCCC1	inconclusive [inhibitor, single point]	–
Cc1ccc(CCNC(=O)C2CCN(S(=O)(=O)c3ccc4c(c3)NC(=O)C(C)S4)CC2)cc1 (stereo not drawn)	inconclusive [inhibitor, single point]	–

Structure (SMILES)	Potency	activity change, negative = growth inhibition
O=C(CN1CCCCCCC1)Nc1cc(Cl)cc(Cl)c1	inconclusive [inhibitor, single point]	–
CC(=O)c1ccc(NC(=O)CN2C(=O)c3cccnc3Sc3ccccc32)cc1	inconclusive [inhibitor, single point]	–
CC(C)c1cc(=O)n2c(nc3ccccc32)[nH]1	inconclusive [inhibitor, partial curve]	–
COC(=O)C1=C(C)n2cnnc2NC1c1ccc(Cl)cc1 (stereo not drawn)	–	inactive: 8.94%
CCOc1ccc(NC(=O)CSc2nc3nc(C)c(Cc4ccccc4)c(C)n3n2)cc1	inconclusive [inhibitor, single point]	–
Cc1ccc(S(=O)(=O)N(C)c2ccc3sc(C)nc3c2)cc1	inconclusive [inhibitor, single point]	–
C=C(C)COc1ccc(-c2n[nH]c(C)c2-c2ccc(OC)cc2)c(O)c1	inconclusive [inhibitor, single point]	–
CC1CN(C(=O)Nc2ccc3c(c2)OCCO3)CC(C)O1 (stereo not drawn)	–	inactive: 5.35%
Cc1c(C(=O)NC(C)CCc2ccccc2)cccc1[N+](=O)[O-] (stereo not drawn)	inconclusive [inhibitor, single point]	–
C=CC[C@@H](CC(=O)NCCO)C(=O)N[C@@H](COC(=O)[C@@H](CC=C)CC(=O)OC(C)(C)C)Cc1ccccc1	inconclusive [inhibitor, partial curve]	–
CCc1ccccc1NC(=O)CSc1nc2c(oc3ccccc32)c(=O)n1-c1ccccc1	active: 23.1 µM	–
COc1ccc(N2CCN(S(=O)(=O)c3cc(-c4cc(C)no4)ccc3C(C)C)CC2)cc1	inconclusive [inhibitor, single point]	–
COc1ccc(CNC(=O)COC(=O)/C=C/c2ccc(S(=O)(=O)N3CCOCC3)cc2)cc1	inconclusive [inhibitor, single point]	–
CCOc1cc(/C=N/NC(=O)CN2CCOCC2)ccc1OCc1ccc(Cl)cc1	inconclusive [inhibitor, partial curve]	–
Cc1ccc(-c2nc3ccc(Br)cn3c2Nc2ccc3c(c2)OCO3)o1	inconclusive [inhibitor, single point]	–
Cc1cc2oc(=O)cc(COC(=O)c3n[nH]c4ccccc34)c2cc1C	inconclusive [inhibitor, single point]	–
CCSc1nc2sc3c(c2c(=O)n1CC)CCC3	inconclusive [inhibitor, single point]	–
O=C(COc1ccccc1F)NC1CC(=O)N(c2ccc3c(c2)OCCO3)C1 (stereo not drawn)	–	inactive: -20.3%
O=C(CCc1nnc(CCc2c[nH]c3ccccc23)o1)NC1CCC1	inconclusive [inhibitor, single point]	–
Cc1cc(-c2nnnn2-c2ccc(F)cc2)no1	–	inactive: -14.4%
COC(=O)C1=C(C(=O)OC)[C@@H]2Nc3ccccc3[C@@]23C[C@@H](C(=O)OC)N(C(=O)c2cc(C)oc2C)C3=N1	inconclusive [inhibitor, single point]	–
Cc1cccc(N2C(=O)CC(Sc3nc(C)cc(C)n3)C2=O)c1 (stereo not drawn)	inconclusive [inhibitor, single point]	–
Cc1cc(C)c(S(=O)(=O)NCC(c2ccco2)N2CCc3ccccc3C2)c(C)c1 (stereo not drawn)	inconclusive [inhibitor, single point]	–

Structure (SMILES)	Potency	activity change, negative = growth inhibition
CC(C)(C)c1ccc(-c2nc(-c3ccncc3)no2)cc1	inconclusive [inhibitor, single point]	–
COCCCNc1ccc([N+](=O)[O-])cc1C(=O)Nc1cccc(C)n1	–	inactive: -8.39%
CN1CCN(c2nc(-c3ccc(N(C)C)cc3)nc3ccccc23)CC1	inconclusive [inhibitor, single point]	–
Cc1ccc(C(=O)Nc2ccc(Cc3ccncc3)cc2)cc1[N+](=O)[O-]	active: 20.6 µM	–
Cc1ccc2c(c1)C(O)(CC(=O)c1ccc3c(c1)OCO3)C(=O)N2 (stereo not drawn)	–	inactive: -7.78%
COc1ccccc1Cn1c(CNS(=O)(=O)c2ccc(Cl)s2)nc2cccnc21	inconclusive [inhibitor, single point]	–
Cn1c(N)c(C(=O)COC(=O)c2cc(S(=O)(=O)N3CCCCC3)ccc2Cl)c(=O)n(C)c1=O	inconclusive [inhibitor, single point]	–
COc1ccc(Cl)c2sc(N3CCN(C(C)=O)CC3)nc12	–	inactive: -9.5%
CC(=O)C1=C(C)NC(SCC(N)=O)=C(C#N)C1c1cccnc1 (stereo not drawn)	–	inactive: -1.07%
CCOC(=O)c1cccc(NC(=O)Cc2ccc(NC(=O)N3CCCCc4ccccc43)cc2)c1	active: 5.17 µM	–
Nc1ncnc2c1[nH]c(=O)n2C1CC(O)C(CO)O1 (stereo not drawn)	–	inactive: 7.88%
CC(=O)c1cccc(NC(=O)Cn2cnc3c2c(=O)n(C)c(=O)n3C)c1	inconclusive [inhibitor, single point]	–
CC(=O)c1ccc(N2CCN(C(=S)NCc3ccco3)CC2)cc1	inconclusive [inhibitor, single point]	–
CCN1CCN(c2ccc(S(=O)(=O)N3CCCCC3)cc2NC(=O)c2ccc(F)cc2)CC1	inconclusive [inhibitor, single point]	–
COc1ccc(Cc2nnc(SCC(=O)c3ccc4c(c3)OCO4)o2)cc1	inconclusive [inhibitor, single point]	–
CCOc1cccc(/C=C2\NC(=S)N(c3ccccc3)C2=O)c1O	inconclusive [inhibitor, single point]	–
CCC(C)(C)NC(=O)c1cc(S(=O)(=O)N2CCc3ccccc32)cn1C	active: 20.6 µM	–
COCCCNC(=O)c1cc2c(=O)n3cccc(C)c3nc2n(C(C)C)c1=N	–	inactive: -17.1%
Cc1ccc(OCCCn2ccnc2)cc1C	inconclusive [inhibitor, single point]	–
O=C(NCC1COc2ccccc2O1)c1ccc(NC(=O)C(c2ccccc2)c2ccccc2)cc1 (stereo not drawn)	active: 18.4 µM	–
COc1ccc(NS(=O)(=O)c2ccc(SC)cc2)cc1	inconclusive [inhibitor, partial curve, poor fit]	–
CCOC(=O)c1c(C)[nH]c(C)c1S(=O)(=O)N1CCCC(C(=O)N2CCN(c3ccc(Cl)cc3)CC2)C1 (stereo not drawn)	active: 16.4 µM	–

— PubChem BioAssay AID686979 (National Center for Advancing Translational Sciences (NCATS), 2013)
